# Measurements published in PMC12136788.
# The list shows a part of the results.
# T1: UNK ZnF1-3 (human, UniProt Q9C0B0 31-174)
# T1 sequence: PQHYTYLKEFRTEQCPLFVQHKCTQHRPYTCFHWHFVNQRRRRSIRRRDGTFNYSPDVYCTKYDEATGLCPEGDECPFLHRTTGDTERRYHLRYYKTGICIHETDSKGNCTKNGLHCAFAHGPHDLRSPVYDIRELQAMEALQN
# B1: 149838666_149838786_1652_3pUTR_ENSMUSG00000048583_ENSMUST00000000033|mouse|control|control (ssRNA)
# RNA: GGGAGUUCUACAGUCCGACGAUCGUCACACAUAGAGCCAAUAAGCAGCAGCAGAAACUAGAUGGAUUGGGAGGAGAGCUCAAACCAUGCAAACUGCUCAGGAAAUUUGGGAUGGGCCUUGUUUUGGGGAAUGUGGUUCAAAUCCAACAGAGGAUUGAGCAUCA
# B2: chr14:35182089:35182090:-_ENSG00000165410_ENST00000422678|hu_hu|motif|central (ssRNA)
# RNA: GGGAGUUCUACAGUCCGACGAUCCUUAAGAUCCAGAUGGCACUUGACUGUCAUUUUAUAAUGGUUUUCCUUCAAGUGAAACGGCGGCAUUGCCUCCCAAUUUCUCUCCAAGUGUCGAACGGUCCUUAAUAUCAUCCAAGCCAUCAACAGAGGAUUGAGCAUCA
# B3: chr4:174295105:174295106:+_ENSG00000164105_ENST00000296504|hu_mus|motif|central (ssRNA)
# RNA: GGGAGUUCUACAGUCCGACGAUCUUGUGCUUUAUUUAGACCUGGUCUGGUUGGAAGCUUGAAGUGUCUUUUGUAUCUUCGGAGUGUAUUUACUUGUAAUUGGUACAAAUCAACCUCUGGAGUGUCGAUGUCCUGAACAGGCGACAACAGAGGAUUGAGCAUCA
# B4: chr8:95500983:95500984:-_ENSG00000164944_ENST00000437199|hu_hu|hu_hu_hu_mus_True|1_98 (ssRNA)
# RNA: GGGAGUUCUACAGUCCGACGAUCAGAACACAUCUAUUCGUGUAAAGACCGUACAUGACGGCCUCUACCACUGCCUCCACUAACAAACUUUCCUCUCGAGCCUCCACUGCCGCUAUUUGUACUAGCCCAGGACGGUCCCAAGUCCAACAGAGGAUUGAGCAUCA
# B5: chr3:104804989:104804990:-_ENSMUSG00000062127_ENSMUST00000098763|mus_hu|motif|central (ssRNA)
# RNA: GGGAGUUCUACAGUCCGACGAUCACACAUCAUUACAAUCUGUUGGCCAGUAACAGCUUUUGCAACAUGGGUUAAUACGGAAAUUGUGAAUCAUGGAACUUUUACUUAGCACACACACACACAAUCUACAGCAAACUUAAAUACCAACAGAGGAUUGAGCAUCA
# B6: 37168511_37169713_2590_CDS_ENSG00000170471_ENST00000397040|human|control|control (ssRNA)
# RNA: GGGAGUUCUACAGUCCGACGAUCCACAAUCUCCAGUACUUCCUUAAGGCAGUCCUUUUCAUCAAGCAUAUCAGGGUGCUCUGUCAGCCAGACACAGAGACACUGAAAAGCUGCCACUAUCAUGGAGUGCAGAUCCCUGGAGUGCAACAGAGGAUUGAGCAUCA
# B7: chr7:112959530:112959531:-_ENSMUSG00000030879_ENSMUST00000124482|mus_hu|FALSE|FALSE (ssRNA)
# RNA: GGGAGUUCUACAGUCCGACGAUCCUGCAGCGACCGACAGCCGCAUGUUUCCAACUUCUGCCCGCCCCUUGGAGGCCGGAACUGGAAACUGGAAGGUAGAGCCGGUGGCGGCAAUUUCAGGGAACGCAUGCGCCUUAGCUCGGACAACAGAGGAUUGAGCAUCA
# B8: chr22:32879901:32879902:+_ENSG00000100225_ENST00000397426|hu_mus|hu_hu_hu_mus_False|8_108 (ssRNA)
# RNA: GGGAGUUCUACAGUCCGACGAUCCUCUGCCAUAUGCAUGGCAUCCUGAAUUGACUCAGCUUCAACAUUUUGACUAGGCCCUUCCAUACUGUCAUCAGUCCAGGCAUCAAAUGGGGUGGCCUGUCCUUGGAAUGAAUCAGUCCCCAACAGAGGAUUGAGCAUCA
# B9: chr10:102306293:102306294:+_ENSG00000166135_ENST00000299163|hu_hu|FALSE|FALSE (ssRNA)
# RNA: GGGAGUUCUACAGUCCGACGAUCAGCCCCCUUAUACCAGAAGUUCACAGUGAUGGUAAUCCCCCCAUUUAGUAAUGACUCUAUGUGAUGCCACCAGUACAUUGGGAUGUAAAGAACAUCACCAGGGCCAACCACUGUUUCGUACAACAGAGGAUUGAGCAUCA
# B10: chr11:106117246:106117247:-_ENSMUSG00000020706_ENSMUST00000021048|mus_mus|FALSE|FALSE (ssRNA)
# RNA: GGGAGUUCUACAGUCCGACGAUCGCAGGCCUUACAAGUUAAAAGUAGAGGCUAGGAAGUAGAGUGCAAUAACUCGUAUCCUAAACGCUAGGAAGCAUCAACCAGAAGUUCUAUAUCUCUUCACAAAACUAGUGACCUCCAGUACAACAGAGGAUUGAGCAUCA
# B11: chr1:60041781:60041782:+_ENSMUSG00000041040_ENSMUST00000036540|mus_hu|mus_mus_mus_hu_False|18_48 (ssRNA)
# RNA: GGGAGUUCUACAGUCCGACGAUCAAGUUUACAAUAGUAAAGUAAAUGCAGUAGUGGCAAAUUUUCUUUUAUUUUCCUUCACAAAAGAAAACCUCAGUAACCCAGUCCUAGUCUUGGCAGAGAAAGCAGCUAUAAAUUCUGACUCAACAGAGGAUUGAGCAUCA
# B12: chrX:70776531:70776532:+_ENSG00000147162_ENST00000373719|perfect_dup|FALSE|FALSE (ssRNA)
# RNA: GGGAGUUCUACAGUCCGACGAUCCUGCUGCAGUACACUUGCUAAAUUUGAAUGGGCAGCAGCAAACUCUGGGAAGACUUCUAAUGCUUUACGAUACAAGCGAACUGCCUCUUCAAUGUUUCCCUGUUCUCGUUUGAUAUUGGCCAACAGAGGAUUGAGCAUCA
# B13: chr8:74858975:74858976:-_ENSG00000154582_ENST00000284811|hu_mus|hu_hu_hu_mus_True|38_108 (ssRNA)
# RNA: GGGAGUUCUACAGUCCGACGAUCGACCUUGUACGUAAAAUACAUGCACACUUUUGAUAGCACAUGUGAGGGGAUCUCUCUAAAAUUGACCUCGUUGGUUUCGUUCUCAGCAAACUGACCUGGACCACUCAACAUAGCCUUUAUCAACAGAGGAUUGAGCAUCA
# B14: chr7:107790313:107790314:-_ENSG00000091129_ENST00000351718|hu_hu|motif|central (ssRNA)
# RNA: GGGAGUUCUACAGUCCGACGAUCCUCUCUACCCAUAUGUUCAUAGUAUGAGAGGGCUGACAAACAAGUGCUUAGGAUAAACAUUCGGGAGAAAUGGAAUAUUGGCAAAGAGCUUAAAAAUUAAACAAAGGAAUUCAUGGCGUUCAACAGAGGAUUGAGCAUCA
# B15: chr5:37680062:37680063:+_ENSMUSG00000029121_ENSMUST00000031004|mus_hu|mus_mus_mus_hu_False|8_48 (ssRNA)
# RNA: GGGAGUUCUACAGUCCGACGAUCUUUGGGUGUAGCUGGUACCUCGUACACAGGACCGUCAUACAUGCCCCUGGAAACCCCUUGCAACCCGAAAACCUUAUUCCUGAUUUUGACGCGCUGGUACAGGUGCUCUGGGAACGCCUUCAACAGAGGAUUGAGCAUCA
# B16: chr12:111957846:111957847:-_ENSG00000204842_ENST00000535949|hu_mus|FALSE|FALSE (ssRNA)
# RNA: GGGAGUUCUACAGUCCGACGAUCUGCUAACUGGUUUGCCCUUGCCUCCCGUUUAAGAAAUUCUUCUGAGUUGUCCCUUUCUAAAGGAACCGUAUAUGAAGAUAAACUGCUAUCAUAUGUGGACACCACACCAUAAUUCUCUUCCAACAGAGGAUUGAGCAUCA
# B17: chr7:123332509:123332510:-_ENSG00000106299_ENST00000223023|hu_hu|FALSE|FALSE (ssRNA)
# RNA: GGGAGUUCUACAGUCCGACGAUCAGAGCAGGACACUGGCCGACUGUUCUGCUCCACUUUUUUUAGCUGAGCACCCUCUCUAAUUUGAUCUAAAAGAGCUGCUUUGUUUCCUGCAGUAGUUGGAACCUGAUGGUCCCCAUCAGACAACAGAGGAUUGAGCAUCA
# B18: chr1:1341249:1341250:-_ENSG00000242485_ENST00000344843|hu_mus|FALSE|FALSE (ssRNA)
# RNA: GGGAGUUCUACAGUCCGACGAUCUUCAUAGAUGGCCAGGUCCACAAGAACUUUCCUGUUGAGCUCCACCUGGCACUUAAUUAAGUUGACAAUGAAUGCUGGGUACUUUAAGCCAUGUUCCUGGGAGGCAGCUGUAAUUCGAUUCAACAGAGGAUUGAGCAUCA
# B19: chr3:110853029:110853030:+_ENSG00000177707_ENST00000485303|hu_hu|motif|central (ssRNA)
# RNA: GGGAGUUCUACAGUCCGACGAUCUGGUUGCUAAACAUACCACUCCCUCCUGGAAAUUACGGAACCAUCUACAUGUGAAACGGAGUCAUCUUCGUUUUCAUCAUAAUGUUCAUCACUGACAAACUUCAUUCCCAUUUUUAGAUCCAACAGAGGAUUGAGCAUCA
# B20: chr2:30381511:30381512:+_ENSG00000119801_ENST00000261353|hu_hu|FALSE|FALSE (ssRNA)
# RNA: GGGAGUUCUACAGUCCGACGAUCCAUGUGGCGGCCAGUGAGCAUGACCCGAUCUUGAACUUCACUGUACUGCAGGUUAACUACCUUGUUAAAAAGAAAUGCUCUGCCAGUGGCGCCUGUGAAACGAGUGGAGAUGAGUUCUGACAACAGAGGAUUGAGCAUCA
# B21: 105360694_105360814_4497_3pUTR_ENSG00000107957_ENST00000369774|human|control|control (ssRNA)
# RNA: GGGAGUUCUACAGUCCGACGAUCAAAAUAAGACGCAAACCAAAGGCCUGACAUAUAAGCCCCAAAUCAACAAACCUCUCCCGAAACAUGCAAAGGAACUGCCCGCCCAGAAAUACCCAAAAUAGUCUGUGCAGAUUAGGAAGACAACAGAGGAUUGAGCAUCA
# B22: 21531409_21533144_2991_CDS_ENSMUSG00000033653_ENSMUST00000117598|mouse|control|control (ssRNA)
# RNA: GGGAGUUCUACAGUCCGACGAUCGACUUCUUCCUCUCUCAAUGGGUCGUGCAGGUAGCAGUCAAUGAUCUUGUCAUACUGGUGUUCCCGCUCAUACAUAAAUUCACAGAUUUGAUAGAAUUCUGCCUUUUCUGCCAUGCGGAUCAACAGAGGAUUGAGCAUCA
# Molecular target: T1, UNK ZnF1-3
# Assay: nsRBNS (natural sequence RNA bind-n-seq); RBNS binding buffer (assumed for nsRBNS): 25 mM Tris pH 7.5, 150 mM KCl, 3 mM MgCl2, 0.01% Triton X-100, 500 ug/ml BSA, 20 U/ml SUPERase-In, 4 C; UNK is unkempt and MSI1 is Musashi-1; names of the RNAs are library labels; protein concentration not given here; high values mean tight binding
row,Binder,binding signal [enrichment R]
1,B1,3.17
2,B2,0.649
3,B3,0.62
4,B4,1.01
5,B5,1.81
6,B6,1.06
7,B7,0.586
8,B8,0.836
9,B9,1.05
10,B10,1.74
11,B11,1.05
12,B12,1.06
13,B13,0.706
14,B14,2.15
15,B15,0.745
16,B16,1.13
17,B17,0.695
18,B18,0.819
19,B19,0.65
20,B20,1.21
21,B21,1.89
22,B22,0.824
